# Test results taken from the supplement of paper PMC3334620.
# In all, about 33,000 sequences were measured (“E-score (-0.5 to 0.5)”: median about -0.056, highest 2% from about 0.38 on). The list shows a part of the results.
# Target: Stb4 (UniProt P50104)
# Assay: PBM E-score (8-mer binding enrichment) (E-score (-0.5 to 0.5)); higher = stronger / more preferred TF binding; most listed sequences are background and not binding sites
# Conditions: protein concentration: 200 nM; construct: GST-DNA-binding domain
# In short: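 Universal all-10-mer Agilent arrays, fresh or stripped once, were converted to double-stranded form by primer extension. GST-tagged yeast transcription factors from PURExpress in vitro transcription/translation, full-length or DNA-binding domain only, were applied at about 100-200 nM and detected with fluorescent anti-GST. After masliner normalisation, the Universal PBM Analysis Suite scored each ungapped eight-base word together with its reverse complement by E-score.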
row,Sequence,PBM E-score
1,CCATGTAC,-0.0703
2,CGGCCTTC,0.209
3,CGCTGCAC,-0.106
4,GCCGTAAC,-0.00304
5,CTGTTAAA,-0.172
6,CAAGCCAC,-0.315
7,AGACCCTA,-0.136
8,AAATACGC,0.126
9,AAGTCTTC,-0.108
10,ATTCAGCG,-0.00866
11,GACCCACA,-0.0227
12,AGATGTTC,-0.018
13,ACAATTCG,0.0597
14,CGGCACAA,0.285
15,AAATCCGC,0.111
16,ATACGAAA,0.0378
17,CCGCCCGA,0.324
18,GCCCACAA,-0.0391
19,ACGGCACC,0.0635
20,CATTCCTA,-0.17
21,ACTCCTTA,-0.0987
22,TCGAATCA,-0.227
23,AAGTATAA,0.0561
24,TCATTCCA,-0.0393
25,GTGCCGCA,0.0972

row,Sequence,PBM E-score
1,CAATGGCG,0.159
2,TCGAGGCA,-0.187
3,AGCTCGAA,0.142
4,CAGCCGGA,0.365
5,AATACTGC,0.0891
6,ACGCCGCA,-0.00168
7,TCCCTCCA,-0.18
8,CAGCGGTA,-0.00538
9,CATAGAAG,-0.184
10,AGCCTAGA,-0.239
11,CGTAGGGC,-0.195
12,AATTGACA,-0.0145
13,AAAAGCGC,-0.211
14,GAAATGGC,-0.0544
15,ACCTAAGT,0.00755
16,AACTAACC,0.201
17,ATTGTCAA,0.00767
18,CGAGAGCC,0.0795
19,CAGTTACC,-0.0377
20,ACGGGACT,0.185
21,GATAAATC,0.216
22,GCAACTTA,0.057
23,CCCTCGAA,-0.21
24,CATAGCCG,0.351
25,GTGCTAAA,-0.0409

row,Sequence,PBM E-score
1,ACCACTAC,-0.0952
2,TCGGAAAA,0.451
3,AATGACCA,0.0489
4,CGTGCACA,-0.193
5,AGTTCGAC,-0.124
6,ATGCATTC,-0.0941
7,GCTCCGCA,0.00455
8,AGCCAACG,-0.309
9,CAGAACAA,-0.148
10,CCTCGAGC,-0.0253
11,AGCGAACT,-0.24
12,GACATATC,-0.00643
13,CCAGGGCA,-0.21
14,CCCAGGAG,-0.248
15,ATAAGGTC,0.0235
16,AGTACTTA,-0.163
17,ACGGGATA,0.275
18,GACCGTCA,-0.226
19,GCATGACC,-0.0795
20,AGTACCTA,-0.0845
21,TATGAATA,0.062
22,GTAAACAC,0.124
23,AGTTAACA,0.091
24,CACTTTCA,-0.144
25,ATAGGGCA,-0.00036

row,Sequence,PBM E-score
1,CCATACCG,0.14
2,AACAGCAT,-0.0946
3,GGAGGTAC,0.112
4,ATGCCACA,-0.111
5,CCCCATTC,-0.0542
6,CGAGTTCC,0.163
7,TAATCATA,-0.0464
8,GAAACTGC,-0.00876
9,GACGCCGA,0.192
10,GCCGGGAC,0.28
11,CCACCAGC,-0.076
12,AGGAGCGG,-0.117
13,AAGGCCAC,-0.22
14,CGATACAA,0.0288
15,AGAGAGCA,-0.0987
16,ACCAATAC,0.00731
17,TTAACAAA,0.0461
18,GCGTCGCA,-0.126
19,CACAAATA,0.0215
20,CCGCGCGG,0.329
21,CGGGTCCA,0.159
22,AGGGTGCG,0.0278
23,ACAATACA,-0.0973
24,CGAATTAC,0.192
25,GCCCGCTA,-0.125

row,Sequence,PBM E-score
1,TGATGACA,-0.104
2,TCCCGCGA,0.228
3,CGCCGTAG,0.0523
4,CAAAACTC,0.0551
5,GGCGAACC,-0.0255
6,ACTTATGC,-0.0458
7,GAGATATC,0.112
8,ATGTTAAG,0.0118
9,GGTCTGGA,-0.195
10,ACGAGCTA,-0.221
11,GAAATCCC,0.122
12,CCTAAAAC,-0.135
13,CTTCCACA,-0.121
14,ATCGCCAC,-0.0822
15,AGGATTAC,-0.1
16,TACTCATA,-0.0182
17,CAGGCGCC,-0.153
18,GCCATAAC,-0.211
19,AAGCGCAC,-0.116
20,CTTGATAC,-0.359
21,GGACACCA,0.0599
22,GAGCACTC,0.09
23,AACATCTC,0.0737
24,GTAACCTA,0.0635
25,GCTCCAAC,-0.111

row,Sequence,PBM E-score
1,ACGATCAG,-0.289
2,TGAAAGCA,-0.224
3,CTGAGCCA,-0.185
4,AACGAAAC,-0.161
5,GGGCCCTA,-0.0534
6,GGCGTCAC,-0.0997
7,AAACTTTG,0.035
8,AACGAGTT,-0.0507
9,CAACTAAA,-0.168
10,ATGTATGA,-0.285
11,GCACTCTA,-0.0977
12,CCCATTGA,-0.17
13,GCCATCAC,-0.164
14,CGAGGCTA,-0.00757
15,CAAGTAAC,-0.285
16,CCCAGAAG,-0.133
17,CAACCAGA,-0.0416
18,AGCCTTGG,-0.304
19,AACTAGTA,-0.168
20,AGAATACT,-0.0801
21,AAGTGTCC,0.0675
22,ACATAGGG,-0.188
23,GCTTTACA,-0.116
24,GATAAACA,-0.0275
25,CGGATCAG,0.33

row,Sequence,PBM E-score
1,CAACATCG,-0.0467
2,ACGGGTAT,0.373
3,GGCAACTA,-0.0479
4,GCAAACAA,-0.107
5,AGTCAAAC,-0.0117
6,GGCGTCCA,-0.0146
7,CAACGTTG,-0.203
8,AATTCGGA,0.447
9,CTCGTTAA,-0.0155
10,ACGTTTAA,-0.24
11,ATCTTTGC,-0.0773
12,ATCTGGAA,-0.0521
13,CAAGGGGG,-0.306
14,CCGTACAC,0.0242
15,AAGTGTGA,-0.128
16,GCCACGCA,0.0425
17,CGTCCTAC,0.0518
18,TCCTTACA,0.0268
19,ATAGTAAT,0.0187
20,AGACCAGG,-0.0986
21,AGTTACAA,0.0669
22,AACTAGAT,0.0474
